From PubChem BioAssay (Tox21)
Results filed as inconclusive are left out. The call rests on the fitted dose curve; in most records, active means well fitted cell-killing curve with a large enough effect in the repeat runs; inconclusive means weak or mixed curves, or effect the other way; inactive means flat fitted curve, though single readings scatter. Some structures have more than one record in an assay (separate samples or runs), and their calls can disagree. Not every entry of the source has a single result; some have several. The other results are left out here. The source may hold further records. The values listed for one entry are repeats in other runs, samples, wells, individuals or studies. Marks in square brackets tell the records apart. A, B and so on number the origins entry by entry.

Assay: cAMP Responsive Elements (CRE) small molecule antagonists, cell-based qHTS assay: qHTS cell viability counter screen (AID 2060913); further: nearly all actives have a fitted effect of over 40% in size
Details: CRE-bla HEK293T viability, CellTiter-Glo luminescence, 5 h; series mostly up to 42.5 µM
Excerpt: (§1) U.S. Tox21 Program National Center for Advancing Translational Sciences [NCATS] Division of Preclinical Innovation [DPI] U.S. Environmental Protection Agency [EPA] National Institutes of Environmental Health Sciences [NIEHS] National Toxicology Program [NTP] U.S. Food and Drug Administration [FDA] Tox21 Assay Overview: CREB (cyclic-AMP Responsive Element Binding Protein) is a cellular transcription factor. It binds to certain DNA sequences called cAMP Responsive Elements (CRE) and regulates the transcription of the genes. […] This cell line can be used to find agonists/antagonists of the cyclic AMP signaling pathway. The activation of the report gene under culture conditions can be detected by fluorescence intensity. This cell line has been used to screen the Tox21 10K compound library to identify agonists that induce oxidative stress. The cytotoxicity of the Tox21 compound library against the CRE-bla cell line was tested in parallel by measuring the cell viability using CellTiter-Glo assay (Promega, Madison, WI) in the same wells.
Tox21 Assay Protocol Summary: CRE-bla Hek 293T cells were suspended in assay medium (DMEM containing 10% dialyzed FBS, 0.1 mM NEAA, 1 mM sodium pyruvate and 25 mM HEPES) and dispensed at 2,000 cells/4 uL /well into 1536-well black wall/clear bottom plates using a Multidrop Combi (ThermoFisher Scientific, Waltham, MA) dispenser. After the assay plates were incubated at 37 C/5% CO2 for 18 hrs, 23 nL of compounds dissolved in DMSO, positive controls or DMSO only was transferred to the assay plate by a pintool workstation (Kalypsys, San Diego, CA), followed by addition of 1 uL of 1.25uM NKH477 (0.25 uM as final concentration) in assay medium using a Flying Reagent Dispenser (Aurora Discovery, San Diego, CA). The plates were incubated at 37 C and 5% CO2 for 3 hrs. Then 1 uL of LiveBLAzer B/G FRET substrate (Invitrogen, Carlsbad, CA) was added to each well using Bioraptr Flying Reagent Dispenser (FRD, Aurora Discovery, San Diego, CA). The plates were incubated at room temperature for 2 h, then fluorescence intensities were measured using an Envision plate reader (PerkinElmer, Shelton, CT) at Excitation 405nm, Emission 460nm and 530nm. The % activity was determined from the ratio of 460nm/530nm. For cell viability readout that measures cytotoxicity, 4 uL /well of CellTiter-Glo reagent was added into the assay plates using Bioraptr FRD. After 30 min incubation at room temperature, the luminescence intensity in the assay plates was measured using a ViewLux (PerkinElmer, Shelton, CT) plate reader.
Potency means the concentration at half of the fitted maximal effect.

SMILES | Potency
CC(=O)O[C@]1(C(C)=O)CC[C@H]2[C@@H]3C=C(Cl)C4=CC(=O)CC[C@]4(C)[C@H]3CC[C@@]21C | active: 43.2 µM [sample A] and inactive [sample B]
CCCCCCCCCCCCCCCO | active: 43.6 µM [sample A] and inactive [sample B]
Oc1c(Cl)cc(Cl)c(Cl)c1Cc1c(O)c(Cl)cc(Cl)c1Cl | active: 22.7 µM [sample A] and inactive [sample B]
NC(=NCCCCCCN=C(N)/N=C(\N)Nc1ccc(Cl)cc1)/N=C(\N)Nc1ccc(Cl)cc1 | active: 60.6 µM [sample A] and inactive [sample B] and inactive [sample C]
Clc1ccc(C(c2ccccc2Cl)C(Cl)Cl)cc1 (centres undefined) | active: 45.2 µM [sample A] and inactive [sample B]
Cc1c(O)cccc1C(=O)N[C@@H](CSc1ccccc1)[C@H](O)CN1C[C@H]2CCCC[C@H]2C[C@H]1C(=O)NC(C)(C)C | active: 26.6 µM [sample A] and inactive [sample B]
CCCCC(CC)COC(=O)c1ccc(O)cc1 (centres undefined) | inactive [sample A] and active: 50.8 µM [sample B]
Oc1ccc(Cl)cc1Sc1cc(Cl)ccc1O | active: 24.3 µM [sample A] and inactive [sample B]

Assay: cAMP Responsive Elements (CRE) small molecule agonists, cell-based qHTS assay: qHTS cell viability counter screen (AID 2060914);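 further: viability read after 3 h of compound exposure; nearly all actives have a fitted effect of over 50% in size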
Details: CRE-bla HEK293T viability, CellTiter-Glo luminescence, 5 h; series mostly up to 92.4 µM
Excerpt: National Center for Advancing Translational Sciences [NCATS]
Division of Preclinical Innovation [DPI]
U.S. Environmental Protection Agency [EPA]
National Institutes of Environmental Health Sciences [NIEHS]
National Toxicology Program [NTP]
U.S. Food and Drug Administration [FDA]
as §1, with “CREB” for “U.S. Tox21 Program National Center for Advancing Translational Sciences [NCATS] Division of Preclinical Innovation [DPI] U.S. Environmental Protection Agency [EPA] National Institutes of Environmental Health Sciences [NIEHS] National Toxicology Program [NTP] U.S. Food and Drug Administration [FDA] Tox21 Assay Overview: CREB”
Tox21 Assay Protocol Summary:
CRE-bla Hek 293T cells were suspended in assay medium (DMEM containing 10% dialyzed FBS, 0.1 mM NEAA, 1 mM sodium pyruvate and 25 mM HEPES) and dispensed at 2,000 cells/5 uL /well into 1536-well black wall/clear bottom plates using a Multidrop Combi (ThermoFisher Scientific, Waltham, MA) dispenser. After the assay plates were incubated at 37 C/5% CO2 for 18 hrs, 23 nL of compounds dissolved in DMSO, positive controls or DMSO only was transferred to the assay plate by a pintool workstation (Kalypsys, San Diego, CA). After the plates were incubated at 37 C/5% CO2 for 3 hrs, 1 uL of LiveBLAzer B/G FRET substrate (Invitrogen, Carlsbad, CA) was added to each well using Bioraptr Flying Reagent Dispenser (FRD, Aurora Discovery, San Diego, CA). The plates were incubated at room temperature for 2 h, then fluorescence intensities were measured using an Envision plate reader (PerkinElmer, Shelton, CT) at Excitation 405nm, Emission 460nm and 530nm. The % activity was determined from the ratio of 460nm/530nm. For cell viability readout that measures cytotoxicity, 4 uL /well of CellTiter-Glo reagent was added into the assay plates using Bioraptr FRD. After 30 min incubation at room temperature, the luminescence intensity in the assay plates was measured using a ViewLux (PerkinElmer, Shelton, CT) plate reader.

SMILES | Potency
Oc1ccc(Cl)cc1Cc1cc(Cl)ccc1O | active: 31.2 µM [sample A] and inactive [sample B]
CC(C)(C)c1ccc(O)c(C(C)(C)C)c1 | inactive [sample A] and active: 54.5 µM [sample B]
COc1ccc2cc3[n+](cc2c1OC)CCc1cc2c(cc1-3)OCO2 | inactive [sample A] and active: 5.96 µM [sample B]
Clc1ccc(C(c2ccccc2Cl)C(Cl)Cl)cc1 (centres undefined) | active: 43.3 µM [sample A] and inactive [sample B]
COc1ccc(CCN2CCC(Nc3nc4ccccc4n3Cc3ccc(F)cc3)CC2)cc1 | active: 49.6 µM [sample A] and inactive [sample B]
CC(=O)Oc1ccc(C(c2ccc(OC(C)=O)cc2)c2ccccn2)cc1 | inactive [sample A] and active: 5.96 µM [sample B]
